This is one part of the list.
Assays:
Assay in all cases: glycan array binding signal (z-score within array); higher = stronger binding
Conditions in all cases: glycan notation: IUPAC condensed, linker removed
Gal(a1-3)Gal = target: Gal(a1-3)Gal
Outline: (§1)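 Glycan array binding is given as a within-array Z-score, which can be read as non-binding when negative. The arrays, 3228 of them, came from the Consortium for Functional Glycomics database and were retained only where the protein sequence was available. Z-scores were averaged across arrays of the same protein sequence at different concentrations or buffers and across linkers.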

Gal(a1-3)Gal(b1-3)GlcNAc = target: Gal(a1-3)Gal(b1-3)GlcNAc
Outline: as §1

Gal(a1-3)Gal(b1-4)Glc = target: Gal(a1-3)Gal(b1-4)Glc
Outline: as §1

Gal(a1-3)Gal(b1-4)GlcNAc = target: Gal(a1-3)Gal(b1-4)GlcNAc
Outline: as §1

[1] = target: Gal(a1-3)Gal(b1-4)[Fuc(a1-3)]GlcNAc
Outline: as §1

[2] = target: Gal(a1-3)Gal(b1-4)[Fuc(a1-3)]GlcNAc(b1-2)Man(a1-3)[Gal(a1-3)Gal(b1-4)[Fuc(a1-3)]GlcNAc(b1-2)Man(a1-6)]Man(b1-4)GlcNAc(b1-4)GlcNAc
Outline: as §1

Gal(a1-3)GalNAc = target: Gal(a1-3)GalNAc
Outline: as §1

[3] = target: Gal(a1-3)[Gal(a1-4)]Gal(b1-4)GlcNAc
Outline: as §1

Gal(a1-4)Gal(b1-4)Glc = target: Gal(a1-4)Gal(b1-4)Glc
Outline: as §1

Gal(a1-4)Gal(b1-4)GlcNAc = target: Gal(a1-4)Gal(b1-4)GlcNAc
Outline: as §1

[4] = target: Gal(a1-4)Gal(b1-4)GlcNAc(b1-3)Gal(b1-4)Glc
Outline: as §1

Gal(a1-4)GlcNAc = target: Gal(a1-4)GlcNAc
Outline: as §1

Gal(a1-6)Glc = target: Gal(a1-6)Glc
Outline: as §1

Gal(b1-2)Gal = target: Gal(b1-2)Gal
Outline: as §1

Gal(b1-3)Gal = target: Gal(b1-3)Gal
Outline: as §1

Gal(b1-3)Gal(b1-4)GlcNAc = target: Gal(b1-3)Gal(b1-4)GlcNAc
Outline: as §1

[5] = target: Gal(b1-3)Gal(b1-4)GlcNAc(b1-2)Man(a1-3)[Gal(b1-3)Gal(b1-4)GlcNAc(b1-2)Man(a1-6)]Man(b1-4)GlcNAc(b1-4)GlcNAc
Outline: as §1

Gal(b1-3)GalNAc = target: Gal(b1-3)GalNAc
Outline: as §1

[6] = target: Gal(b1-3)GalNAc(a1-3)[Fuc(a1-2)]Gal(b1-4)Glc
Outline: as §1

[7] = target: Gal(b1-3)GalNAc(a1-3)[Fuc(a1-2)]Gal(b1-4)GlcNAc
Outline: as §1

[8] = target: Gal(b1-3)GalNAc(b1-3)Gal(a1-4)Gal(b1-4)Glc
Outline: as §1

[9] = target: Gal(b1-3)GalNAc(b1-4)Gal(b1-4)Glc
Outline: as §1

[10] = target: Gal(b1-3)GalNAc(b1-4)[Neu5Ac(a2-3)]Gal(b1-4)Glc
Outline: as §1

Gal(b1-3)GlcNAc = target: Gal(b1-3)GlcNAc
Outline: as §1

[11] = target: Gal(b1-3)GlcNAc(b1-2)Man(a1-3)[Gal(b1-3)GlcNAc(b1-2)Man(a1-6)]Man(b1-4)GlcNAc(b1-4)GlcNAc
Outline: as §1

[12] = target: Gal(b1-3)GlcNAc(b1-2)Man(a1-3)[Gal(b1-3)GlcNAc(b1-2)Man(a1-6)]Man(b1-4)GlcNAc(b1-4)[Fuc(a1-6)]GlcNAc
Outline: as §1

[13] = target: Gal(b1-3)GlcNAc(b1-3)Gal(b1-3)GlcNAc
Outline: as §1

[14] = target: Gal(b1-3)GlcNAc(b1-3)Gal(b1-4)Glc
Outline: as §1

[15] = target: Gal(b1-3)GlcNAc(b1-3)Gal(b1-4)GlcNAc
Outline: as §1

[16] = target: Gal(b1-3)[Fuc(a1-4)]GlcNAc
Outline: as §1

[17] = target: Gal(b1-3)[Fuc(a1-4)]GlcNAc(b1-2)Man(a1-3)[Gal(b1-3)[Fuc(a1-4)]GlcNAc(b1-2)Man(a1-6)]Man(b1-4)GlcNAc(b1-4)GlcNAc
Outline: as §1

[18] = target: Gal(b1-3)[Fuc(a1-4)]GlcNAc(b1-2)Man(a1-3)[Gal(b1-3)[Fuc(a1-4)]GlcNAc(b1-2)Man(a1-6)]Man(b1-4)GlcNAc(b1-4)[Fuc(a1-6)]GlcNAc
Outline: as §1

[19] = target: Gal(b1-3)[Fuc(a1-4)]GlcNAc(b1-3)Gal(b1-3)[Fuc(a1-4)]GlcNAc
Outline: as §1

[20] = target: Gal(b1-3)[Fuc(a1-4)]GlcNAc(b1-3)Gal(b1-4)GlcNAc
Outline: as §1

[21] = target: Gal(b1-3)[Fuc(a1-4)]GlcNAc(b1-3)Gal(b1-4)[Fuc(a1-3)]GlcNAc
Outline: as §1

[22] = target: Gal(b1-3)[GlcNAc(b1-6)]GalNAc
Outline: as §1

[23] = target: Gal(b1-3)[Neu5Ac(a2-6)]GalNAc
Outline: as §1

[24] = target: Gal(b1-3)[Neu5Ac(a2-6)]GlcNAc(b1-6)Gal(b1-4)Glc
Outline: as §1

[25] = target: Gal(b1-3)[Neu5Ac(b2-6)]GalNAc
Outline: as §1

[26] = target: Gal(b1-4)GalNAc(a1-3)[Fuc(a1-2)]Gal(b1-4)GlcNAc
Outline: as §1

[27] = target: Gal(b1-4)GalNAc(b1-3)[Fuc(a1-2)]Gal(b1-4)GlcNAc
Outline: as §1

Gal(b1-4)Glc = target: Gal(b1-4)Glc
Outline: as §1

Gal(b1-4)Glc6S = target: Gal(b1-4)Glc6S
Outline: as §1

Gal(b1-4)GlcNAc = target: Gal(b1-4)GlcNAc
Outline: as §1

[28] = target: Gal(b1-4)GlcNAc(a1-6)Gal(b1-4)GlcNAc
Outline: as §1

[29] = target: Gal(b1-4)GlcNAc(b1-2)Man(a1-3)Man(b1-4)GlcNAc(b1-4)GlcNAc
Outline: as §1

[30] = target: Gal(b1-4)GlcNAc(b1-2)Man(a1-3)[Gal(b1-4)GlcNAc(b1-2)Man(a1-6)]Man(b1-4)GlcNAc(b1-4)GlcNAc
Outline: as §1

[31] = target: Gal(b1-4)GlcNAc(b1-2)Man(a1-3)[Gal(b1-4)GlcNAc(b1-2)Man(a1-6)]Man(b1-4)GlcNAc(b1-4)[Fuc(a1-6)]GlcNAc
Outline: as §1

[32] = target: Gal(b1-4)GlcNAc(b1-2)Man(a1-3)[Man(a1-6)]Man(b1-4)GlcNAc(b1-4)GlcNAc
Outline: as §1

[33] = target: Gal(b1-4)GlcNAc(b1-2)Man(a1-6)Man(b1-4)GlcNAc(b1-4)GlcNAc
Outline: as §1

[34] = target: Gal(b1-4)GlcNAc(b1-2)Man(a1-6)[Man(a1-3)]Man(b1-4)GlcNAc(b1-4)GlcNAc
Outline: as §1

[35] = target: Gal(b1-4)GlcNAc(b1-2)[Gal(b1-4)GlcNAc(b1-4)]Man(a1-3)[Gal(b1-4)GlcNAc(b1-2)Man(a1-6)]Man(b1-4)GlcNAc(b1-4)GlcNAc
Outline: as §1

[36] = target: Gal(b1-4)GlcNAc(b1-3)Gal(b1-3)GlcNAc
Outline: as §1

[37] = target: Gal(b1-4)GlcNAc(b1-3)Gal(b1-4)Glc
Outline: as §1

[38] = target: Gal(b1-4)GlcNAc(b1-3)Gal(b1-4)GlcNAc
Outline: as §1

[39] = target: Gal(b1-4)GlcNAc(b1-3)Gal(b1-4)GlcNAc(b1-3)Gal(b1-4)GlcNAc
Outline: as §1

[40] = target: Gal(b1-4)GlcNAc(b1-3)Gal(b1-4)[Fuc(a1-3)]GlcNAc(b1-3)Gal(b1-4)[Fuc(a1-3)]GlcNAc
Outline: as §1

[41] = target: Gal(b1-4)GlcNAc(b1-3)GalNAc
Outline: as §1

[42] = target: Gal(b1-4)GlcNAc(b1-3)[Gal(b1-4)GlcNAc(b1-6)]Gal(b1-4)GlcNAc
Outline: as §1

[43] = target: Gal(b1-4)GlcNAc(b1-3)[GlcNAc(b1-6)]Gal(b1-4)GlcNAc
Outline: as §1

B1: DETC sTCR (Mus musculus) (protein)
chain: LDVYLEPVAKTFTVVAGDPASFYCTVTGGDMKNYHMSWYKKNGTNALFLVYKLNSNSTDGGKSNLKGKINISKNQFILDIQKATMKDAGTYYCGSDIGGSSWDTRQMFFGTGIELFVEPKSQPPAKPSVFIMKNGTNVACLVKDFYPKEVTISLRSSKKIVEFDPAIVISPSGKYSAVKLGQYGDSNSVTCSVQHNSETVHSTDFEPYANSFNNEKLPEPENDTQISEPCSSADLVPRGSTTAPSAQLKKKLQALKKKNAQLKWKLQALKKKLAQHHHHHHDSWISQDQLSFTRRPNKTVHISCKLSGVPLHNTIVHWYQLKEGEPLRRIFYGSVKTYKQDKSHSRLEIDEKDDGTFYLIINNVVTSDEATYYCACWDSSGFHKVFAEGTKLIVIPSDKRLDADISPKPTIFLPSVAETNLHKTGTYLCLLEKFFPDVIRVYWKEKDGNTILDSQEGDTLKTNDTYMKFSWLTVPERAMGKEHRCIVKHENNKGGADQEIFFPSIKKVAVSTKPTTCSSADLVPRGSTTAPSAQLEKELQALEKENAQLEWELQALEKELAQLNDIFEAQKIEW
glycan array binding signal (z-score) (Gal(a1-3)Gal): -0.626 | glycan array binding signal (z-score) (Gal(a1-3)Gal(b1-3)GlcNAc): -0.367 | glycan array binding signal (z-score) (Gal(a1-3)Gal(b1-4)Glc): -0.639 | glycan array binding signal (z-score) (Gal(a1-3)Gal(b1-4)GlcNAc): -0.643 | glycan array binding signal (z-score) [1]: -0.284 | glycan array binding signal (z-score) [2]: -0.631 | glycan array binding signal (z-score) (Gal(a1-3)GalNAc): 0.029 | glycan array binding signal (z-score) [3]: 0.9 | glycan array binding signal (z-score) (Gal(a1-4)Gal(b1-4)Glc): 0.397 | glycan array binding signal (z-score) (Gal(a1-4)Gal(b1-4)GlcNAc): -0.169 | glycan array binding signal (z-score) [4]: 0.052 | glycan array binding signal (z-score) (Gal(a1-4)GlcNAc): -0.601 | glycan array binding signal (z-score) (Gal(a1-6)Glc): -0.605 | glycan array binding signal (z-score) (Gal(b1-2)Gal): -0.101 | glycan array binding signal (z-score) (Gal(b1-3)Gal): -0.45 | glycan array binding signal (z-score) (Gal(b1-3)Gal(b1-4)GlcNAc): -0.515 | glycan array binding signal (z-score) [5]: -0.559 | glycan array binding signal (z-score) (Gal(b1-3)GalNAc): -0.241 | glycan array binding signal (z-score) [6]: -0.497 | glycan array binding signal (z-score) [7]: -0.518 | glycan array binding signal (z-score) [8]: -0.024 | glycan array binding signal (z-score) [9]: -0.294 | glycan array binding signal (z-score) [10]: 1.47 | glycan array binding signal (z-score) (Gal(b1-3)GlcNAc): -0.464 | glycan array binding signal (z-score) [11]: 0.085 | glycan array binding signal (z-score) [12]: 0.945 | glycan array binding signal (z-score) [13]: -0.355 | glycan array binding signal (z-score) [14]: -0.571 | glycan array binding signal (z-score) [15]: -0.557 | glycan array binding signal (z-score) [16]: -0.401 | glycan array binding signal (z-score) [17]: 0.583 | glycan array binding signal (z-score) [18]: 2.22 | glycan array binding signal (z-score) [19]: -0.554 | glycan array binding signal (z-score) [20]: -0.152 | glycan array binding signal (z-score) [21]: -0.378 | glycan array binding signal (z-score) [22]: -0.348 | glycan array binding signal (z-score) [23]: -0.26 | glycan array binding signal (z-score) [24]: -0.311 | glycan array binding signal (z-score) [25]: -0.458 | glycan array binding signal (z-score) [26]: 0.276 | glycan array binding signal (z-score) [27]: 0.223 | glycan array binding signal (z-score) (Gal(b1-4)Glc): -0.62 | glycan array binding signal (z-score) (Gal(b1-4)Glc6S): 2.38 | glycan array binding signal (z-score) (Gal(b1-4)GlcNAc): -0.281 | glycan array binding signal (z-score) [28]: 0.688 | glycan array binding signal (z-score) [29]: -0.457 | glycan array binding signal (z-score) [30]: -0.254 | glycan array binding signal (z-score) [31]: -0.668 | glycan array binding signal (z-score) [32]: -0.186 | glycan array binding signal (z-score) [33]: -0.609 | glycan array binding signal (z-score) [34]: 6.38 | glycan array binding signal (z-score) [35]: -0.621 | glycan array binding signal (z-score) [36]: -0.703 | glycan array binding signal (z-score) [37]: -0.495 | glycan array binding signal (z-score) [38]: 0.474 | glycan array binding signal (z-score) [39]: -0.538 | glycan array binding signal (z-score) [40]: -0.363 | glycan array binding signal (z-score) [41]: -0.338 | glycan array binding signal (z-score) [42]: -0.447 | glycan array binding signal (z-score) [43]: -0.656

— the supplement of paper PMC8728848
